# Experimental data: article PMC4242493
# This is one part of the list. The list includes weakly bound sequences.
# Biological target: MaxL homodimer (UniProt P61244)
# Assay: universal protein-binding microarray (PBM)
# Conditions: PBS-based mixture, 10 nM His-tagged protein dimer, 2% milk, 200 ng/uL BSA, 50 ng/uL salmon testes DNA, 0.02% TX-100; detection with Alexa 488 anti-His …; high values mean tight binding; most listed sequences are background and not binding sites; double strand, one strand shown
# UniProt P61244, sequence (P61244 whole entry): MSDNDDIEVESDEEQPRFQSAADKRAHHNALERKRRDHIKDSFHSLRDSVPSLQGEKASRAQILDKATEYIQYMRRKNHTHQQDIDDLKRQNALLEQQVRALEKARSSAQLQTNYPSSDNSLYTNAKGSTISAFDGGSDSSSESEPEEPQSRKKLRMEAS
row,Sequence,binding signal (normalized occupancy)
1,AGGATGAA,0.072
2,AGTTGACC,0.0726
3,CATAATAG,0.0832
4,CAAGCACC,0.0723
5,ATGCGCCG,0.0838
6,ATGTTTTA,0.0906
7,ATCCTGTG,0.0775
8,AAAGCGAC,0.0673
9,CATCAAGG,0.0771
10,GGACACTA,0.0717
11,GGCGCGTA,0.0751
12,ACTCAGAA,0.0698
13,GTGGATCA,0.0818
14,TCTCGTAA,0.0762
15,CCCCCTAA,0.0764
16,ATGAACCC,0.0746
17,GAGCTTTA,0.0672
18,CAGCAGCG,0.0702
19,CAACGATG,0.0773
20,CTCAGCTC,0.0665
21,CGAATCCG,0.0702
22,CCGTCATA,0.0781
23,CTCATTTC,0.0748
24,AGAATCGA,0.0701
25,CCTAAGTA,0.0775

row,Sequence,binding signal (normalized occupancy)
1,ATGACGGG,0.0805
2,GGCGTCAC,0.0774
3,CACCCTAA,0.0817
4,GCTTTGGA,0.0788
5,ACATTTGC,0.0828
6,AGGCTGCA,0.0727
7,ACGCCAGC,0.0724
8,AAAGTGCA,0.0789
9,CATGTGAC,0.168
10,CAAACAAA,0.0751
11,CAATTTTA,0.0717
12,ACAAGTGG,0.0844
13,ACAAGTGT,0.0777
14,ACCGGTCT,0.0723
15,AATCACTC,0.0791
16,ATTTGTAG,0.0745
17,ACGGCGGG,0.0756
18,CACCAGTG,0.0724
19,ATCGAGAG,0.0707
20,AGATGGAC,0.0751
21,GCCAGCGA,0.0667
22,ACGGAATC,0.0794
23,CGTCCGTA,0.071
24,CCCCGGCA,0.0802
25,CGGGGACA,0.0771

row,Sequence,binding signal (normalized occupancy)
1,ACGCGCTC,0.0755
2,ATCGGAAA,0.0712
3,GGCGACCC,0.0706
4,CACGTACA,0.0882
5,CTTAACTC,0.072
6,GATGGGCA,0.0781
7,CATACACC,0.0901
8,AAGGTAAG,0.0727
9,TTCAGAAA,0.0739
10,AGCTCCCC,0.073
11,GTACAGTA,0.077
12,ACTGGCCG,0.0737
13,ACGAAAGT,0.0732
14,ATGTCTCC,0.0807
15,GCAACTGC,0.069
16,AGCGGGCC,0.0682
17,AGTCTTCG,0.0648
18,GACTAGGC,0.0703
19,CTCGCTGA,0.0709
20,GTGTGTCA,0.0887
21,CCAGGACA,0.0774
22,AACGCGCC,0.0697
23,AGAGGAAC,0.0728
24,CGCAGGTA,0.0729
25,CCCGGCTC,0.0643

row,Sequence,binding signal (normalized occupancy)
1,ACCTAGCA,0.0776
2,GAGGACGC,0.0668
3,ACCTGTCT,0.0791
4,CGTGGGCA,0.0842
5,ACTGCTCT,0.0716
6,AATGTTAT,0.0802
7,AACCTCCA,0.0747
8,ATGTGAAG,0.0891
9,ACTCTGCC,0.0725
10,GTGTCGGA,0.0773
11,GCATAGAA,0.08
12,GACTGAGA,0.0692
13,GAAATCTA,0.0763
14,CAGCAAAA,0.0739
15,AGCATTTA,0.0741
16,ATAACGAA,0.0764
17,AGATCTTG,0.0764
18,GAACTGTC,0.0725
19,AGGTCTGC,0.0711
20,ACTTTTTA,0.0717
21,GCTTCATA,0.0763
22,ATCTGAGG,0.0779
23,CTGACCCA,0.077
24,ACCAAAAC,0.0688
25,AAGCTAAG,0.0751

row,Sequence,binding signal (normalized occupancy)
1,CTAACACC,0.0747
2,CACCTTCC,0.0759
3,CAGCGCGA,0.0735
4,CGAGGCAA,0.0752
5,GGTGTGAA,0.0819
6,AATCGTAG,0.0762
7,ACCCTACG,0.0791
8,CTTAGGTA,0.0737
9,ATACAATG,0.0826
10,AATGCGGT,0.0825
11,CGTCTCCC,0.0717
12,TCTTATAA,0.0804
13,AATAACGG,0.0747
14,CATGGTGC,0.0928
15,TCGTTTCA,0.074
16,AAAATATT,0.0814
17,AGTCGTCG,0.0761
18,AGCTCCCG,0.0693
19,CAAACATA,0.0873
20,AGCCATAA,0.0764
21,ATTCTTCC,0.0754
22,CTTGAAAG,0.0735
23,GCTTGATA,0.0723
24,CCATGACC,0.0831
25,CTAGACTC,0.0763

row,Sequence,binding signal (normalized occupancy)
1,AATTGAAC,0.0797
2,GGACTAGA,0.0729
3,AAAAGAGA,0.073
4,GTCAGTTA,0.077
5,CCTATAGG,0.0669
6,AACCTTCA,0.0729
7,CTTGTAAC,0.0775
8,CGTCGACC,0.0721
9,AGTTCTTA,0.0713
10,GCGAGGCC,0.0712
11,GGGCTGAC,0.076
12,AGACTTTA,0.0745
13,GATCACAC,0.0863
14,TATGCTGA,0.0773
15,CGGTGGCC,0.0697
16,CTTTCTCA,0.0813
17,CCTATTGA,0.0764
18,CGGTATAA,0.0815
19,ATTAGCGC,0.0772
20,AGTATATG,0.0859
21,CCACGAGC,0.0889
22,AGAGGCAC,0.0762
23,AAGTTCCT,0.0724
24,GAATCCCC,0.0773
25,ATCAATAG,0.0797

row,Sequence,binding signal (normalized occupancy)
1,GTGTGTGA,0.0839
2,TGTTAAAA,0.0788
3,CTCTTGAC,0.0752
4,CAGAATTC,0.0734
5,CTTTCCTA,0.0729
6,ACTAGGAA,0.0729
7,AGCTGAGC,0.0651
8,AGCAATAC,0.079
9,CCGAAATA,0.0705
10,GCGTCACA,0.0822
11,ACTAGGTC,0.0719
12,CCAGGTCA,0.0739
13,CAGCAAAC,0.0788
14,AAGTTGCT,0.0701
15,AATGCCAA,0.0756
16,CCCGCGGC,0.067
17,AAAATGTC,0.0794
18,ACACTCTA,0.074
19,GGGGTGAA,0.0785
20,GCCTTATA,0.0822
21,ATGGTTAA,0.0737
22,GAACGAGC,0.0745
